The values that follow come from ChEMBL document CHEMBL4888484, “Replenishing the malaria drug discovery pipeline: Screening and hit evaluation of the MMV Hit Generation Library 1 (HGL1) against asexual blood stage Plasmodium falciparum ,using a nano luciferase reporter read-out” (2022).

Screen size: about 150,000 compounds; about 540 (0.36%) showed an effect of 50% or more. This is one part of the list.

The test system of the experiment is Plasmodium falciparum. The experiment is described as follows: Primary screen in NF54 nanoGlo assay, in single point, at 2uM, 72h; a lower Z score goes with more inhibition. The class given is functional, Erythrocyte. The note with it: timepoint 72 hour.
`Cc1ccc(Cn2c(=O)c3nn(C)cc3n3c(=O)n(Cc4ccc(N5CCCC5=O)cc4)nc23)cc1`: the % Inhibition (in general, the change of the read-out against control, counted positive when it falls) is on record as -8% and the Z score is 1.
In the case of `Cc1nsc(N[C@@H](C)Cc2c(C)noc2C)c1C#N`, the “% Inhibition” value is on record as -10% and the Z score came to 1.05.
For `O=C(Nc1ccc2[nH]ncc2c1)C1CCN(C(=O)c2ccco2)CC1`, in that order: 7% and -0.76.
Take `COc1ccc([C@@H]2c3cccn3CCCN2Cc2ccc(F)c(Cl)c2)cc1`: the “% Inhibition” value is reported as -7% and the Z score was determined as 0.89.
For `Cc1nc(C)n(C2CN(C(=O)c3nc(C(C)C)oc3C)C2)n1`, the “% Inhibition” value was found to be 6% and the Z score was -1.22.
Consider `Cc1cccc([C@@H]2CCCN2C(=O)CCCN2C(=O)CN(C)C2=O)c1`, for which the “% Inhibition” value is listed as -9% and the Z score was 1.19.
Consider `Cc1cc(C(=O)NCCc2nnc(C)n2C)cc(C)c1F`, for which the “% Inhibition” value is reported as -15% and the Z score was 2.91.
Consider `COc1ccc(CNC(=O)Cn2cc(-c3ccccc3)c3ncnc(N4CCOCC4)c32)cc1OC`, for which the “% Inhibition” value was -10% and the Z score was found to be 1.46.
As to `Cc1nn(C(C)C)cc1CNc1cc(F)cc(N(C)C)c1`, the “% Inhibition” value is listed as -5% and the Z score came to 1.03.
For `COc1ccc(-c2noc(C[C@H]3CNCCS3(=O)=O)n2)cc1C`, in that order: 0% and 0.05.
Take `FCC[C@H]1CN(c2nncc3ccccc23)CCO1`: the “% Inhibition” value is reported as 0% and the Z score is 0.03.
As for `O=C(Cc1c(F)cccc1Cl)N1CCC(N2C(=O)COCC2=O)CC1`, the “% Inhibition” value was 12% and the Z score is -1.57.
`COC(=O)c1cc(S(=O)(=O)N(C)Cc2ncnn2C)cc(F)c1F`: the “% Inhibition” value is given as 5% and the Z score was -0.88.
As for `CC1CCN(S(=O)(=O)N2CCC(C(=O)N3CCC(Cc4nncn4Cc4ccccc4)CC3)CC2)CC1`, the “% Inhibition” value is -9% and the Z score amounted to 1.05.
Turning to `O=C(c1ccoc1)N1CCC2(CC1)CN(c1cccc(F)c1)[C@@H]2c1ccccc1`, the “% Inhibition” value came to 0% and the Z score was -0.01.
For the compound `Cc1ccc(OC[C@H]2c3ccsc3CCN2C(=O)CN(C(=O)c2cccs2)C(C)(C)C)c(C)c1`, the “% Inhibition” value is -3% and the Z score was 0.39.
On to `CCN(CC(=O)Nc1ccc2c(c1)OCCO2)CC(=O)Nc1sccc1C#N`, for which the “% Inhibition” value is given as -14% and the Z score is on record as 2.14.
As to `Cc1ccccc1CNC(=O)CN1CCC2(CCC(=O)N(C3CC3)C2)CC1`, the “% Inhibition” value is listed as -8% and the Z score was 0.91.
For `COc1ccc(CNC(=O)N2CC[C@H](CS(C)(=O)=O)C2)cc1Cl`, in that order: -5% and 1.06.
On to `CCc1nccn1CCn1c(=O)n(C(CC)CC)c2ncc(C(=O)O)cc21`, for which the “% Inhibition” value is recorded as -7% and the Z score stood at 1.02.
For `CO[C@H]1C[C@@H](O)C12CCN(c1ncnc3c1CCC3)CC2`, the “% Inhibition” value is given as 9% and the Z score is given as -1.13.
As to `Cc1cccc(NC(=O)c2cc(OC(C)C)c3ccoc3c2)n1`, the “% Inhibition” value is reported as -2% and the Z score was 0.35.
As for `Cc1ccc(-c2cncc(C(=O)Nc3c(C)n(C)n(-c4ccccc4)c3=O)c2)cc1`, the “% Inhibition” value is reported as 3% and the Z score is given as -0.44.
Turning to `CC(C)n1cc(CN2CC[C@@]3(CCCN(C)C3)C2)cn1`, the “% Inhibition” value was 0% and the Z score is listed as -0.04.
For the compound `O=C(NC1CCCCC1)N1CC[C@H](N2C(=O)COC2=O)C1`, the “% Inhibition” value is given as 1% and the Z score is -0.14.
In the case of `Cc1nc(NC(=O)c2ccn(C)c(=O)c2)ccc1Br`, the “% Inhibition” value is listed as -3% and the Z score was 0.37.
Turning to `O=C(C1CCCC1)N1CCC2(CC1)C[C@@H](Cc1cccc(F)c1)CCO2`, the “% Inhibition” value is recorded as -3% and the Z score is on record as 0.61.
For `COCC[C@H]1CN(Cc2cc(=O)n3nc(C)cc3[nH]2)CCO1`, in that order: 7% and -1.19.
Take `Cc1cnn(CCO[C@@H]2CCCCO2)c1`: the “% Inhibition” value is 2% and the Z score was -0.35.
For the compound `COC[C@H]1CCCCN(c2nc(-c3ccc(F)cc3)no2)C1`, the “% Inhibition” value is -14% and the Z score came out at 1.9.
Consider `CC1=CCN(C[C@H](O)COc2ccc3c(c2)OCO3)CC1`, for which the “% Inhibition” value is on record as -12% and the Z score amounted to 2.3.
For `CCOC(=O)CN(CCOC)CC(=O)NC1(C#N)CCCCC1`, in that order: -2% and 0.44.
Consider `CC[C@@H](CO)NC(=O)Nc1ccc(OCC(F)(F)F)c(F)c1`, for which the “% Inhibition” value is -8% and the Z score came out at 0.74.
For `Cc1nn(C)c(C)c1S(=O)(=O)Nc1ccccc1CCc1nc2ccccc2n1C`, in that order: 7% and -0.78.
For `O=C(CC[C@H]1CCCN(Cc2cc3ccccc3o2)C1)N1CCN(c2ccccn2)CC1`, in that order: -4% and 0.83.
For the compound `O=C(C1CC1c1ccccc1F)N(Cc1ccco1)c1cccc(F)c1` (stereo not drawn), the “% Inhibition” value is listed as -10% and the Z score was determined as 0.87.
As for `CC1CC(c2ccccc2)CN1c1cc(N2CCOCC2)ncn1` (stereo not drawn), the “% Inhibition” value worked out at 5% and the Z score is -0.64.
Turning to `CC(C)C[C@@H](NC(=O)C1(C)CC1(Cl)Cl)C(=O)O` (stereo partly drawn), the “% Inhibition” value amounted to 1% and the Z score is recorded as -0.13.
On to `Cc1cc(NC(=O)c2ccc(Br)c(Cl)c2)nc(=O)[nH]1`, for which the “% Inhibition” value was 0% and the Z score is on record as -0.03.
For `Cc1ccc(NC(=O)Cn2c(C)cc3nc4n(c(=O)c32)CCC4)cc1`, the “% Inhibition” value was 4% and the Z score is -0.42.
For `O=C(Nc1ccnn1C1CCC1)[C@H]1C[C@@H]1c1cccc(O)c1`, in that order: -8% and 0.97.
For `COc1ccc(F)c(F)c1CN1C[C@H](c2ccc(C)cc2)[C@@H](N(C)C)C1`, in that order: -11% and 1.46.
As to `O=C(c1sccc1Cl)N1CC[C@@]2(CCCN(Cc3cccnc3)C2=O)C1`, the “% Inhibition” value worked out at 1% and the Z score is -0.26.
With `O=C(c1cscn1)N1CCC2C(CCC(=O)N2C2CC2)C1` (stereo not drawn), the “% Inhibition” value is reported as -7% and the Z score was determined as 0.76.
For `Cc1cc(=O)cc(C(=O)NC(Cc2ccncc2)[C@H]2C[C@H](O)C2)n1C` (stereo partly drawn), in that order: 10% and -1.19.
For the compound `CCN(CC)[C@H]1CCOC2(CCN(C(=O)c3ccc4ccccc4n3)CC2)C1`, the “% Inhibition” value is on record as -12% and the Z score worked out at 1.5.
For `CC[C@H]1CN(c2cncc(C(N)=O)n2)CCN1C`, the “% Inhibition” value was found to be 7% and the Z score is reported as -0.88.
Consider `CC(=O)N1CCC[C@H](CNC(=O)N[C@H]2CC[C@H](CO)CC2)C1`, for which the “% Inhibition” value was determined as 1% and the Z score is on record as -0.1.
In the case of `O=C(CN1C(=O)N[C@]2(CCOC2)C1=O)N1CCC(c2ccccc2)=N1`, the “% Inhibition” value is given as -1% and the Z score amounted to 0.2.
In the case of `Cc1ccc(Cn2cccc2C(=O)C(=O)Nc2ccc(F)cc2Cl)cc1C`, the “% Inhibition” value is recorded as -4% and the Z score came to 0.41.
For `CC(C)(CNC(=O)C1CC1C(=O)O)c1ccccc1F` (stereo not drawn), in that order: -4% and 0.7.
Regarding `O=C(NC1CCCCC1)c1cc2c(Cl)ccc3c2n1CCO3`, the “% Inhibition” value was found to be 38% and the Z score is listed as -5.57.
On to `Cc1noc(C)c1C(C)NC(=O)NCCCC1CCCCO1` (stereo not drawn), for which the “% Inhibition” value is given as -17% and the Z score stood at 1.4.
For the compound `CCC(=O)N(Cc1ccc(C)cc1)c1ccc(CC(=O)NCCOC)cc1`, the “% Inhibition” value is -8% and the Z score came to 1.15.
As to `Cc1ccc(C(=O)N2CC[C@H](Oc3cc(N4CCCC4)ncn3)C2)cn1`, the “% Inhibition” value is on record as -10% and the Z score is given as 1.46.
For `O=C(N[C@@H]1CCCc2ccc(F)cc21)C1CCCCN1C(=O)c1ccco1` (stereo partly drawn), in that order: 17% and -1.7.
For `O=C(NCc1ccncc1)C1CCN(c2ncnc3c2oc2ccccc23)CC1`, in that order: -13% and 1.79.
As to `CCc1ccc(Cn2ncnc2[C@@H]2CCCCN2)cc1`, the “% Inhibition” value is reported as -7% and the Z score worked out at 1.35.
Take `COCC(=O)Nc1cc(C(=O)N(C[C@H]2CCC(=O)N2)C(C)C)c2c(c1)ncn2Cc1ccc(F)cc1`: the “% Inhibition” value is on record as -5% and the Z score came to 0.86.
For `CCCCCOCC(=O)N1CC([C@H](C)O)C1`, the “% Inhibition” value stood at 5% and the Z score was -0.66.
As to `COc1cc(O)ccc1-c1c(C#N)c(N)nc2c1Cc1c(O)cccc1-2`, the “% Inhibition” value stood at 5% and the Z score is on record as -0.61.
Turning to `Oc1ccc(-c2cnn(-c3nnn[nH]3)c2)c2ccccc12`, the “% Inhibition” value is -5% and the Z score is given as 0.48.
Consider `O=S(=O)(N(CCO)CCCO)C1(COCc2ccccc2)CC1`, for which the “% Inhibition” value is on record as -10% and the Z score was found to be 1.02.
For the compound `O=C(O)c1cccnc1NC[C@@H](O)CN1CCc2ccccc2C1`, the “% Inhibition” value was -10% and the Z score is 1.91.
For the compound `CN(C)S(=O)(=O)N1C[C@H]2CC[C@@H](C1)N(C(=O)CCc1cccc(F)c1)C2`, the “% Inhibition” value was -13% and the Z score worked out at 1.68.
Take `CC(C)n1cc(CNC[C@@H]2C[C@H](CO)N(C)[C@@H]2c2ccccc2F)cn1`: the “% Inhibition” value came to 1% and the Z score was -0.18.
For `CC1(C)N=C(c2ccc(F)cc2)C(=O)N1CC(=O)N1CCN(c2ccc(F)cc2)CC1`, the “% Inhibition” value came to 28% and the Z score is recorded as -3.13.
For `O=C(C1CCN(C2CCN(CCCc3ccccc3)CC2)CC1)N1CCC1`, in that order: -10% and 1.64.
Turning to `CC1(C)C2CC=C(COCC(O)CNCC3COc4ccccc4O3)C1C2` (stereo not drawn), the “% Inhibition” value is recorded as -10% and the Z score is reported as 1.04.
For `COC(=O)CC(C)(C)CC(=O)N(C)[C@@H](C)c1ccc(F)c(F)c1`, in that order: -9% and 1.21.
Consider `O[C@H]1CC[C@@H]1n1cc(-c2cccc(Cl)c2)nn1`, for which the “% Inhibition” value was -8% and the Z score was determined as 0.71.
As for `c1ccc2c(c1)OC[C@@H](c1nc3nccc(-c4ccncc4)n3n1)O2`, the “% Inhibition” value is given as -10% and the Z score is given as 1.28.
Consider `O=C(NC1CC1c1c(F)cccc1F)c1ccncc1Cl` (stereo not drawn), for which the “% Inhibition” value turned out to be 0% and the Z score is listed as 0.01.
For `Cc1ccc(C(C)NC(C)c2nnnn2C)cc1C` (stereo not drawn), in that order: -8% and 0.84.
For `Cc1ccc(Oc2cc(C)nc3ncnn23)cn1`, in that order: -8% and 0.78.
As for `Cc1ccc(C)c(CC(=O)N2CC[C@@H](N)C2)c1`, the “% Inhibition” value worked out at 2% and the Z score is listed as -0.22.
`O=c1c2cccc(F)c2ncn1C1(C2CCCC2)CC1`: the “% Inhibition” value is given as -18% and the Z score is on record as 2.36.
`COCC(=O)N1CCc2cc(NCc3ncc(Cl)s3)ccc21`: the “% Inhibition” value is -11% and the Z score was determined as 1.16.
For the compound `CCCn1nc(C(=O)N2CCCc3cccc(Cl)c32)ccc1=O`, the “% Inhibition” value was -8% and the Z score turned out to be 1.47.
As to `COc1cc(OC)nc(Oc2cccc3cccnc23)n1`, the “% Inhibition” value is -9% and the Z score turned out to be 1.08.
Consider `CC(=O)N1CCO[C@@H](CNc2nnc(C(C)(C)C)o2)C1`, for which the “% Inhibition” value is -1% and the Z score was 0.19.
For `Cc1cc(CNc2ncccc2F)on1`, in that order: -6% and 0.85.
Consider `O=C(N[C@@H]1C[C@H](Cn2cc(C3CC3)nn2)[C@@H](O)[C@H]1O)c1cccnc1`, for which the “% Inhibition” value was determined as 18% and the Z score is given as -2.04.
For `COc1cccc(CCCN2CCC[C@@H]2C(=O)O)c1`, in that order: -18% and 2.1.
